Results published in PubChem BioAssay (NCATS).
Inconclusive results, whose numbers are uncertain, are shown with a selection of clear calls. Potencies of inconclusive entries are left out as doubtful fits. The source made the active and inactive calls. Calls come from the whole dose curve; as a rule, active = well fitted cell-killing curve with a large enough effect; inconclusive = small, poorly fitted or top-dose-only effect, or effect the other way; inactive = no such curve, though single readings can be large or run the other way.

Experiment: Viability qHTS for spleen associated tyrosine kinase inhibitor (SYKi) drug resistant MV4-11 cells (AID 1963824); note: nearly all actives have a fitted effect of over 35% in size
Details: SYKi-resistant MV4-11 viability, CellTiter-Glo, 72 h; series mostly up to 45 µM
Outline: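 SYK inhibitor-resistant MV4-11 AML cells, 500 per well, added to predispensed compounds and incubated 72 hr at 37 C, 5% CO2. Viability measured by CellTiter-Glo luminescence after 10 min at room temperature.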
Potency is the fitted concentration of half-maximal effect; tags give direction and shape of the fitted curve.

SMILES | Potency | viability, % of control
COc1cc2c(cc1O)CC[C@H]1[C@@H]2CC[C@]2(C)[C@H](O)CC[C@@H]12 | active: 0.731 µM | 
C=C(CCC1C(C)(O)CCC2C(C)(C)C(O)CCC12C)C(O)CO (stereo not given) | inconclusive [cytotoxic, full curve] | 
C=C1C(O)CC2C(C(=O)O)=COC(O[C@@H]3O[C@H](COC(=O)c4ccc(O)cc4)[C@@H](O)[C@H](O)[C@H]3O)C12 (stereo not given in full) | inactive | 
O=c1[nH]ccc2nc(-c3ccc(CN4CCC(c5nc(-c6ccccn6)n[nH]5)CC4)cc3)c(-c3ccccc3)cc12 | active: 9.2 µM | 
CC1(C)CC[C@]2(C(=O)O[C@@H]3O[C@H](CO)[C@@H](O)[C@H](O)[C@H]3O)CC[C@]3(C)C(=CCC4[C@@]5(C)CC[C@H](O[C@H]6O[C@H](CO)[C@@H](O)[C@H](O[C@@H]7O[C@H](CO)[C@@H](O)[C@H](O)[C@H]7O)[C@H]6O)C(C)(C)C5CC[C@]43C)[C@@H]2C1 (stereo not given in full) |  | inactive: 95.6% [at 9.25 µM]
CCCCN(CC)c1nc(C)nc2c1c(C)cn2-c1c(C)cc(C)cc1C | inconclusive [cytotoxic, single point] | 
CC1=CC2(O)/C=C/C(C)(O)CC(O)/C=C/C(=O)OC23C(=O)NC(CC(C)C)C3C1C (stereo not given) | inconclusive [rising, full curve, poor fit] | 
C[C@@H]1C(=O)O[C@H]2[C@H]1CC[C@@]1(C)C(=O)C=C[C@](C)(O)[C@H]21 | inconclusive [cytotoxic, single point] | 
CO[C@H]1C[C@@H]2CC[C@@H](C)[C@@](O)(O2)C(=O)C(=O)N2CCCC[C@H]2C(=O)O[C@H]([C@@H](C)C[C@@H]2CC[C@@H](O)[C@H](OC)C2)CC(=O)[C@H](C)/C=C(\C)[C@@H](O)[C@@H](OC)C(=O)[C@H](C)C[C@H](C)/C=C/C=C/C=C/1C | inconclusive [cytotoxic, partial curve] | 
CO[C@@H]1[C@H](O)CCC2(CO2)[C@H]1[C@@]1(C)O[C@@H]1CC=C(C)C (stereo not given in full) | inconclusive [cytotoxic, partial curve, poor fit] | 
Oc1c(Cl)cc(Cl)c(Cl)c1Cc1c(O)c(Cl)cc(Cl)c1Cl | active: 5.96 µM | 
COc1ccnc2[nH]cc(C(=O)C(=O)N3CCN(C(=O)c4ccccc4)CC3C)c12 (stereo not given) | inactive | 
C[C@H](CN1CCCC1)C(=O)c1ccc(C(F)(F)F)cc1 | inconclusive [cytotoxic, partial curve, poor fit] | 
COc1cc(/C=C/C(=O)O[C@H]2[C@H](OC(=O)/C=C/c3cc(OC)c(O)c(OC)c3)O[C@H](CO[C@@H]3O[C@H](CO)[C@@H](O)[C@H](O)[C@H]3O)[C@@H](O)[C@@H]2O)ccc1O | inactive | 
Cc1cc(OCCCS(C)(=O)=O)cc(C)c1-c1cccc(COc2ccc3c(c2)OCC3CC(=O)O)c1 (stereo not given) | inconclusive [cytotoxic, partial curve] | 
